{
  "source": "PubChem BioAssay AID1645852",
  "about": "(National Center for Advancing Translational Sciences (NCATS), 2021)",
  "note": "Hit rate of the full screen: of about 1,200 compounds, about 160 (13%) were called active. Inconclusive means that the source gave no clear call. Such entries were picked first, then a sample of the others. Calls follow the shape of the dose curve; as a rule, active = well fitted inhibition curve with a large enough effect; inconclusive = small, poorly fitted or top-dose-only effect; inactive = no such curve, though single readings can be large or run the other way. Where the call is inconclusive, the potency comes from a doubtful curve fit. % is scaled to controls: 0 for no effect and ±100 for the full control effect; potency is read from the fitted curve at half-maximal effect; tags tell the direction and shape of the fitted curve.",
  "data": [
    {"target": "Inositol hexakisphosphate kinase 1 (Homo sapiens) (UniProt Q92551)", "sequence (Q92551 whole entry, looked up)": "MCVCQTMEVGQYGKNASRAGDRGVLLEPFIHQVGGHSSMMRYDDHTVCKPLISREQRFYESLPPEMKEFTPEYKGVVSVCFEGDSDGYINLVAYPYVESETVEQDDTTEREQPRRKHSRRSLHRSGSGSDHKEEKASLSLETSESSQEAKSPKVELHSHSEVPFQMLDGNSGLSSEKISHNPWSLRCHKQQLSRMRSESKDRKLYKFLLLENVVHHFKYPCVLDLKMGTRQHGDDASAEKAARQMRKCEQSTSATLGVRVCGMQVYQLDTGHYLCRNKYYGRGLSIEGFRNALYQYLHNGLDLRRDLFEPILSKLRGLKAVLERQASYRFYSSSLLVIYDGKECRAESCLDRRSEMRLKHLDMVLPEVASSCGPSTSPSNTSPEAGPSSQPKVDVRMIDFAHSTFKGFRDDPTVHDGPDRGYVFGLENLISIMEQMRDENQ", "assay": "Confirmatory qHTS assay for small molecule inhibitors of Inositol hexaphosphate kinase 1 (IP6K1); also: nearly all actives have a fitted effect of over 65% in size", "details": "recombinant IP6K1 kinase, ADP-Glo luminescence, 2 h; series mostly up to 49 µM; activity change, negative = inhibition: at the top concentration", "procedure,_shortened": "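Compounds go into an ATP/IP6 mixture dispensed at 1.3 mM and 130 uM. IP6K1 is added, the reaction runs 2 hr at room temperature, and ADP produced is quantified by ADP-Glo Max luminescence.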", "values": [
      {"smiles": "CCc1nn(CC(=O)N2CCN(c3cccc(C)c3C)CC2)c(=O)c2cc3sccc3n12", "activity change, negative = inhibition": "inactive: -15%"},
      {"smiles": "Cc1cccc(-c2cnc3[nH]cc(CC(N)=O)c3c2)c1", "Potency": "inconclusive: 28.2 µM [inhibitor, partial curve]"},
      {"smiles": "CN1CCN(C(=O)Nc2cccc(Cl)c2)c2cccnc21", "activity change, negative = inhibition": "inactive: -9.39%"},
      {"smiles": "COCCN1CCCC[C@]2(C[C@H](C(=O)O)[C@H](c3ccco3)N2C(=O)Cc2cccs2)C1=O", "Potency": "inconclusive: 32.6 µM [inhibitor, single point]"},
      {"smiles": "Cc1nn(-c2ccccc2)c2sc(C(=O)Nc3cccc(O)c3)cc12", "Potency": "inconclusive: 18.4 µM [inhibitor, partial curve]"},
      {"smiles": "COc1cccc(-c2cnc3[nH]cc(CC(N)=O)c3c2)c1", "Potency": "inconclusive: 28.2 µM [inhibitor, partial curve]"},
      {"smiles": "CN(c1cc(=O)c2ccnc(-c3cccc(C(F)(F)F)c3)c2o1)C1CCOCC1", "Potency": "inconclusive: 16.8 µM [inhibitor, partial curve]"},
      {"smiles": "O=S(=O)(O)c1ccc2cc(N=Nc3cc(S(=O)(=O)O)c4cccnc4c3O)ccc2c1", "Potency": "inconclusive: 13 µM [inhibitor, partial curve]"},
      {"smiles": "Clc1ccc2c(c1)-n1cc(-c3ccccc3)nc1CO2", "Potency": "inconclusive: 16.4 µM [inhibitor, partial curve]"},
      {"smiles": "CC(C)NC(=O)C1CCN(c2nc3ccccc3nc2C(F)(F)F)CC1", "activity change, negative = inhibition": "inactive: 23.5%"},
      {"smiles": "Cc1ccc(-c2noc(CNC(=O)c3ccccc3)n2)cc1", "Potency": "inconclusive: 2.06 µM [inhibitor, partial curve, poor fit]"},
      {"smiles": "Cn1ncc2c(Nc3cccc(F)c3)ncnc21", "Potency": "inconclusive: 11.6 µM [inhibitor, partial curve]"},
      {"smiles": "Cc1ccc2c(c1)cc1c(=O)n(CC(=O)N3CCCCC3)nc(C)n12", "activity change, negative = inhibition": "inactive: -18.8%"},
      {"smiles": "Cc1ccc2nc(C(C)NC(=O)c3cnc(-c4ccccn4)[nH]c3=O)[nH]c2c1", "note": "(stereo not given)", "Potency": "inconclusive: 11.6 µM [inhibitor, partial curve, poor fit]"},
      {"smiles": "O=C1c2ccccc2C(=O)c2c1ccc(O)c2O", "Potency": "active: 3.66 µM"},
      {"smiles": "O=C(CSc1nc2cc3ccccc3cc2[nH]1)Nc1cccc(C(F)(F)F)c1", "activity change, negative = inhibition": "inactive: -14.9%"},
      {"smiles": "COc1ccc(-c2ccc3c(c2)C(=O)N2CC[C@H](n4nnc(C(N)=O)c4C(N)=O)C[C@H]2C(=O)N3)c(OC)c1", "Potency": "inconclusive: 18.4 µM [inhibitor, partial curve]"},
      {"smiles": "COc1cccc(CCC(=O)N2C[C@@H]3CC[C@H](C2)N(CC2CCC2)C3=O)c1", "activity change, negative = inhibition": "inactive: -11.3%"},
      {"smiles": "Fc1ccc(-c2ccc3ncc(Nc4ccc5c(c4)OCO5)n3n2)cc1", "Potency": "inconclusive: 11.9 µM [inhibitor, partial curve]"},
      {"smiles": "CN1CCC[C@@H]1c1cccnc1", "activity change, negative = inhibition": "inactive: -7.78%"},
      {"smiles": "CCC(O)C(=O)N1CCc2onc(-c3ccc(-c4ccccc4)cc3)c2C1", "note": "(stereo not given)", "Potency": "inconclusive: 14.6 µM [inhibitor, partial curve]"},
      {"smiles": "Cn1nnnc1Sc1ncnc2scc(-c3ccc(C#N)cc3)c12", "activity change, negative = inhibition": "inactive: -4.95%"},
      {"smiles": "O=C(CSc1nc2c(cnn2-c2ccc(F)cc2)c(=O)[nH]1)Nc1ccc(Br)cc1", "activity change, negative = inhibition": "inactive: -1.1%"},
      {"smiles": "Nc1nc2c(s1)C(c1ccccc1)CC(=O)N2", "note": "(stereo not given)", "Potency": "inconclusive: 9.2 µM [inhibitor, partial curve]"},
      {"smiles": "CCN(CC)S(=O)(=O)c1ccc2c(c1)N(CC(=O)N1CCN(c3cccc(C(F)(F)F)c3)CC1)C(=O)CO2", "activity change, negative = inhibition": "inactive: -1.84%"},
      {"smiles": "Oc1cccc(Nc2ncnc3sc4c(c23)CCCC4)c1", "Potency": "inconclusive: 14.6 µM [inhibitor, partial curve]"},
      {"smiles": "O=C(CCc1ccc(O)cc1)c1c(O)cc(O)cc1O", "Potency": "active: 5.17 µM"},
      {"smiles": "O=C(NCCc1nc(-c2ccccc2)cs1)c1ccc2nccn2c1", "Potency": "inconclusive: 20.6 µM [inhibitor, partial curve, poor fit]"},
      {"smiles": "O=C(Nc1ccccc1-c1cn2c(CN3CCNCC3)csc2n1)c1cnc2ccccc2n1", "Potency": "inconclusive: 5.8 µM [inhibitor, partial curve]"},
      {"smiles": "CCCCC(=O)Nc1ccccc1C(=O)OCc1cc(=O)n2nc(C3CCCCC3)sc2n1", "activity change, negative = inhibition": "inactive: -15.3%"},
      {"smiles": "CC1CCN(C(=O)CSc2nc(-c3ccccc3)no2)CC1", "Potency": "inconclusive: 13 µM [inhibitor, partial curve, poor fit]"},
      {"smiles": "CCc1ccc(NC(=O)CN(c2ccc(OC)cc2)S(=O)(=O)c2c(C)[nH]c(=O)[nH]c2=O)cc1", "activity change, negative = inhibition": "inactive: -3.02%"},
      {"smiles": "Cc1ccc(CC(=O)NCc2nc(-c3ccccc3)no2)cc1", "activity change, negative = inhibition": "inactive: -14.7%"},
      {"smiles": "CCOC(=O)c1ccc(NC2SC(=O)N(Cc3cccc(C(=O)O)c3)C2=O)cc1", "note": "(stereo not given)", "Potency": "inconclusive: 11.6 µM [inhibitor, partial curve]"},
      {"smiles": "Oc1ccc(/C=C/c2cc(O)cc(O)c2)cc1", "Potency": "active: 9.2 µM"},
      {"smiles": "N#Cc1cc(NC(=O)C(=O)O)c(Cl)c(NC(=O)C(=O)O)c1", "activity change, negative = inhibition": "inactive: -23.3%"},
      {"smiles": "O=C(c1ccccc1)N1Cc2[nH]cnc2C[C@H]1c1nc(-c2ccc(Cl)cc2)no1", "Potency": "inconclusive: 29.8 µM [inhibitor, partial curve]"},
      {"smiles": "CCOc1ccc(/C=C(\\C#N)C(=O)Nc2sc3c(c2C(=O)OC)C(C(=O)OC)CC3)cc1OC", "note": "(stereo not given)", "Potency": "active: 2.91 µM"},
      {"smiles": "CCOc1ccccc1NC(=O)Cn1nc2c3cc(F)ccc3n(Cc3cccc(C)c3)cc-2c1=O", "activity change, negative = inhibition": "inactive: 8.73%"},
      {"smiles": "CCOc1ccc(CNC(=O)C2CCN(S(=O)(=O)c3cn(C)cn3)CC2)cc1", "activity change, negative = inhibition": "inactive: 17.4%"},
      {"smiles": "CN(C)c1cc(=O)c2ccnc(-c3cccc(C(F)(F)F)c3)c2o1", "Potency": "inconclusive: 16.8 µM [inhibitor, partial curve]"},
      {"smiles": "CC(C)Cc1nc(CN(C)C(=O)c2cccc(CCC(C)(C)O)c2)no1", "activity change, negative = inhibition": "inactive: -12.4%"},
      {"smiles": "Cc1ccc(CCNC(=O)c2nn(C)c3c2CSc2ccccc2-3)cc1", "activity change, negative = inhibition": "inactive: -17.6%"},
      {"smiles": "NC(=O)c1cccc(-c2cc(Nc3ccc(OC(F)(F)F)cc3)ncn2)c1", "Potency": "inconclusive: 9.2 µM [inhibitor, partial curve]"},
      {"smiles": "NC(=O)Cc1c[nH]c2ncc(-c3ccc4c(c3)OCO4)cc12", "Potency": "active: 14.9 µM"},
      {"smiles": "CC1(CNc2ccccc2)COc2ccc(C(=O)NCCc3cnc[nH]3)cc2N1", "note": "(stereo not given)", "Potency": "inconclusive: 37.5 µM [inhibitor, single point]"},
      {"smiles": "CCOC(=O)c1cnc2ccc(-c3cncc(NS(=O)(=O)c4ccccc4)c3)cn12", "Potency": "inconclusive: 18.4 µM [inhibitor, partial curve]"},
      {"smiles": "COc1ccc(-c2nc(SCC(=O)Nc3cccc(C(C)=O)c3)n[nH]2)cc1", "Potency": "inconclusive: 18.4 µM [inhibitor, partial curve]"},
      {"smiles": "COc1ccc(Cl)cc1NC(=O)CN(C)S(=O)(=O)c1ccc(Br)s1", "activity change, negative = inhibition": "inactive: 28.8%"},
      {"smiles": "CNc1nc2c(s1)C(c1ccc(Cl)cc1)CC(=O)N2", "note": "(stereo not given)", "Potency": "active: 16.4 µM"},
      {"smiles": "CCCc1nc(C(=O)N2C[C@H](c3cccc(OC)c3)[C@@H](N)C2)cs1", "activity change, negative = inhibition": "inactive: -3.11%"},
      {"smiles": "CC(C)c1ccc(-c2cc(=O)c3ccccc3o2)cc1", "Potency": "active: 3.26 µM"},
      {"smiles": "Cc1ccc(Cl)cc1NC(=O)c1csnn1", "Potency": "inconclusive: 20.6 µM [inhibitor, partial curve, poor fit]"},
      {"smiles": "Cn1cc(-c2cc(=O)c3ccnc(Nc4ccc5[nH]ccc5c4)c3o2)cn1", "Potency": "inconclusive: 29.8 µM [inhibitor, partial curve, poor fit]"},
      {"smiles": "CCc1nc2ccc(C(=O)NCc3ccc(N(C)C)cc3)cc2nc1CC", "activity change, negative = inhibition": "inactive: -16.4%"},
      {"smiles": "O=C(O)c1ccc(-c2c[nH]c3ncc(-c4ccccc4)cc23)cc1C1CCCC1", "Potency": "inconclusive: 5.8 µM [inhibitor, partial curve]"},
      {"smiles": "CC#C[C@@H](CC(=O)O)c1ccc(OCc2cccc(-c3ccc(C(F)(F)F)cc3)c2)cc1", "Potency": "inconclusive: 13 µM [inhibitor, partial curve, poor fit]"},
      {"smiles": "Nc1ccc(O)c([N+](=O)[O-])c1", "Potency": "active: 31.6 µM"},
      {"smiles": "CN1CC[C@@H](c2c(O)cc(O)c3c(=O)cc(-c4ccccc4Cl)oc23)[C@@H](O)C1", "Potency": "inconclusive: 20.6 µM [inhibitor, partial curve, poor fit]"},
      {"smiles": "Cc1ccc(C(=O)Oc2cc(-c3ccc4c(c3)OCO4)cc(=O)c3c(C)oc(C)c23)cc1", "Potency": "inconclusive: 20.6 µM [inhibitor, partial curve]"},
      {"smiles": "NC(=O)Cc1c[nH]c2ncc(-c3ccc(F)c(Cl)c3)cc12", "Potency": "inconclusive: 14.9 µM [inhibitor, partial curve]"},
      {"smiles": "Cc1ccc(C)c(N2CCN(S(=O)(=O)c3csc(C(N)=O)c3)CC2)c1", "Potency": "inconclusive: 13 µM [inhibitor, partial curve, poor fit]"},
      {"smiles": "O=C(Nc1cccnc1)c1ccnc(-c2nnc3ccc(Nc4ccccc4)nn23)c1", "Potency": "inconclusive: 16.8 µM [inhibitor, partial curve]"},
      {"smiles": "O=C1C[C@@H](c2ccc(O)cc2)Oc2cc(O)ccc21", "Potency": "inconclusive: 8.2 µM [inhibitor, partial curve, poor fit]"},
      {"smiles": "COc1ccc(-c2csc(=Nc3ccccc3)n2CCO)cc1F", "Potency": "inconclusive: 18.4 µM [inhibitor, partial curve, poor fit]"},
      {"smiles": "CCc1nc2nc(C)cc(Nc3cccc(C)c3C)n2n1", "Potency": "inconclusive: 32.6 µM [inhibitor, partial curve, poor fit]"},
      {"smiles": "Clc1cccc(-c2ccc(CN3CCN(C4CCNC4)CC3)o2)c1", "note": "(stereo not given)", "activity change, negative = inhibition": "inactive: -24%"},
      {"smiles": "O=C(Nc1noc2ccccc12)c1c(F)cccc1F", "Potency": "inconclusive: 23.1 µM [inhibitor, single point]"},
      {"smiles": "CN1C[C@@H](NC(=O)Nc2ccccc2)C[C@H]1c1nc(-c2ccccc2)no1", "Potency": "inconclusive: 33.5 µM [inhibitor, partial curve]"},
      {"smiles": "Oc1cccc(-c2c3nc(c(-c4cccc(O)c4)c4ccc([nH]4)c(-c4cccc(O)c4)c4nc(c(-c5cccc(O)c5)c5ccc2[nH]5)CC4)C=C3)c1", "Potency": "inconclusive: 20.6 µM [inhibitor, single point]"}
    ]}
  ]
}
